This is one part of the list.
B1: ENSG00000139921:stop:overlap|stop_codon|ENSG00000139921|stop_codon|NA|stop_codon (ssRNA)
RNA: GGGAGUUCUACAGUCCGACGAUCUUCCACAGAAUGCCAUAAGACAACGCUCUCUGGGUCCAUCAUUGGCCACAGAUAAAUCCUAGUUAAAUUUUAUAGUUAUCUUAAUAUUAUGAUUUUGAUAAAAACAGAAGAUUGAUCAUUCAACAGAGGAUUGAGCAUCA
B2: chr1:6592219:6592320:-|3pUTR|ENSG00000162413|unk|total|mutant (ssRNA)
RNA: GGGAGUUCUACAGUCCGACGAUCCCCAAAGCCGCCUUGGCUUGAGUUUUUGUCCUUGCCUCCUUUUCCGAGAAGAGGGCAUUCCGACUGCAUUUUCCUGGUUAAAGAAGGUUAAAGCAAAUGUUUAUUGCCUUUUCCCGUGAACAACAGAGGAUUGAGCAUCA
B3: ENSG00000107863:be:win_901|CDS|ENSG00000107863|bound_else_gene|NA|bound_elsewhere_windowed (ssRNA)
RNA: GGGAGUUCUACAGUCCGACGAUCGUGAGGUAUGGCGUGAGUGAGCAGACCUCUUUAAAAACAGUGUCAAGAACCACAUCACCACCAUUAUCAAUUCCCACCACUCAUCUAAUUCAUCAGCCUGCAGGCUCCAGAUCACUGGAACAACAGAGGAUUGAGCAUCA
B4: ENSG00000070961:be:win_3501|CDS|ENSG00000070961|bound_else_gene|NA|bound_elsewhere_windowed (ssRNA)
RNA: GGGAGUUCUACAGUCCGACGAUCCGAAGAUGAUGCUCCUACAAAACGUAACUCCAGUCCUCCACCCUCUCCCAACAAAAAUAACAAUGCUGUUGACAGUGGAAUUCACCUUACAAUAGAAAUGAACAAGUCUGCUACCUCUUCCAACAGAGGAUUGAGCAUCA
B5: chr8:87872786:87873971:-|CDS|ENSG00000176566|control|control|control (ssRNA)
RNA: GGGAGUUCUACAGUCCGACGAUCUUGUCUCAGCAGGUCCUGUUGACCAACGUGGUGACGGGACACCAGCAGUCAUUUGGGACUAGCAGUGAUGUCUUGGCCCAGCAGUUUGCAAUCAUGACUCCUUUGCUGUUUAAUGGCUGUCAACAGAGGAUUGAGCAUCA
B6: chr15:66548596:66548706:+|3pUTR|ENSG00000174442|unk|total|mutant (ssRNA)
RNA: GGGAGUUCUACAGUCCGACGAUCCCGCAAGGGCUCUGAAAUGACAAAGAGAACGAGCACCACAAAUGAGAACAGGAUCAUUUCCGUAAAUACAGCUUUAUCCCAAAAGCUUUAACUGUAUUGGGAAAACUUAAAAAACCGCAUCAACAGAGGAUUGAGCAUCA

The binders below were run against T1, UNK ZnF1-6 (called full-length) (human, UniProt Q9C0B0 30-357) (assay: nsRBNS (natural sequence RNA bind-n-seq); RBNS binding buffer (assumed for nsRBNS): 25 mM Tris pH 7.5, 150 mM KCl, 3 mM MgCl2, 0.01% Triton X-100, 500 ug/ml BSA, 20 U/ml SUPERase-In, 4 C; UNK is unkempt and MSI1 is Musashi-1; names of the RNAs are library labels; protein concentration not given here; high values mean tight binding).
T1 sequence: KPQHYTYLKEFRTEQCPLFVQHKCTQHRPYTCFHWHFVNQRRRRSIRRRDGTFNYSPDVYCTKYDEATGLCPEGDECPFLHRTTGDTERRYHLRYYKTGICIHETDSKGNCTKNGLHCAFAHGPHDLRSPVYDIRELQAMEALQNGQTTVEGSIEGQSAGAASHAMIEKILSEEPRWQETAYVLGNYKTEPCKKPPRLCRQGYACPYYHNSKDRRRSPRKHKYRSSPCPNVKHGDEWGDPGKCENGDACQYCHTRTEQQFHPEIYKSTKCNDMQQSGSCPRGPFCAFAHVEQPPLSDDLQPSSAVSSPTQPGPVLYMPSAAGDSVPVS

With B1 as the binder, how does the binding signal read?
The binding signal was 0.941 enrichment R.

How did the binding signal turn out when B2 was run?
Its binding signal is 0.414 enrichment R.

Which binding signal does the source give for B3 here?
The binding signal was 0.806 enrichment R.

How did the binding signal turn out when B4 was run?
Its binding signal is 1.65 enrichment R.

For B5, which binding signal is on record?
The binding signal was 0.434 enrichment R.

For B6, which binding signal is on record?
The binding signal was 0.299 enrichment R.

Source: article PMC12136788
